Measurements from the supplement of paper PMC10369915.
Some of the results follow. No stated cut-off is given here; in the data, active = 3.2 or more and inactive = the rest. Most of these values are background signal.

B1: KHDR1_HUMAN_435 (peptide)
chain: ARPVKGAYREHPYGR
B2: KCND3_HUMAN_136 (peptide)
chain: GDCCYEEYKDRKREN
B3: KAPCA_HUMAN_331 (peptide)
chain: DTSNFDDYEEEEIRV
B4: KPCD_HUMAN_334 (peptide)
chain: MQDNSGTYGKIWEGS
B5: 3BP2_HUMAN_174_YA (peptide)
chain: APTDNEDYEHDDEDD
B6: KCC2B_HUMAN_17_YA (peptide)
chain: FTDEAQLYEDIGKGA
B7: KCNA3_HUMAN_163_YA (peptide)
chain: FDAILAAYQSGGRIR
B8: KHDR1_HUMAN_440 (peptide)
chain: GAYREHPYGRYGGGG
B9: KIT_HUMAN_570_YA (peptide)
chain: INGNNAVYIDPTQLP
B10: KI67_HUMAN_1552 (peptide)
chain: VSGEKNIYAFMGTPV
B11: KIT_HUMAN_936 (peptide)
chain: SESTNHIYSNLANCS
B12: KCRS_HUMAN_255 (peptide)
chain: ARGIWHNYDKTFLIW
B13: KIT_HUMAN_553_YA (peptide)
chain: KALQKPMYEVQWKVV
B14: KDM3A_HUMAN_1114 (peptide)
chain: ITPEDRKYGTTNLHL
B15: KIT_HUMAN_900 (peptide)
chain: EHAPAEMYDIMKTCW
B16: KAPCB_HUMAN_69_YA (peptide)
chain: KHKATEQYAAMKILD
B17: KLC1_HUMAN_449_YA (peptide)
chain: DGTSFGEYGGWAKAC
B18: KCND3_HUMAN_108 (peptide)
chain: GKLHYPRYECISAYD
B19: KHSRP_HUMAN_688 (peptide)
chain: YYRQQAAYYGQTPGP
B20: KCNJ4_HUMAN_234_YA (peptide)
chain: AMTQEGEYLPLDQRD
B21: KPCB_HUMAN_662 (peptide)
chain: NEFAGFSYTNPEFVI
B22: KIT_HUMAN_570 (peptide)
chain: INGNNYVYIDPTQLP
B23: KIT_HUMAN_703 (peptide)
chain: DHAEAALYKNLLHSK
B24: KCNJ1_HUMAN_337 (peptide)
chain: SKTKEGKYRVDFHNF
B25: KIRR1_HUMAN_606 (peptide)
chain: KDPTNGYYNVRAHED
B26: KDM1A_HUMAN_135 (peptide)
chain: ANLSEDEYYSEEERN
B27: KIT_HUMAN_721 (peptide)
chain: CSDSTNEYMDMKPGV
B28: KHDR1_HUMAN_435_YA (peptide)
chain: ARPVKGAYREHPAGR
B29: KDM5A_HUMAN_1595 (peptide)
chain: VLDIPSKYDWSGAEE
B30: KIT_HUMAN_568 (peptide)
chain: EEINGNNYVYIDPTQ
B31: KLC1_HUMAN_449 (peptide)
chain: DGTSFGEYGGWYKAC
B32: KCNA3_HUMAN_162 (peptide)
chain: SFDAILYYYQSGGRI
B33: KCNA3_HUMAN_499 (peptide)
chain: EGEEQSQYMHVGSCQ
B34: KIT_HUMAN_547_YA (peptide)
chain: VMILTAKYLQKPMAE
B35: ALK_HUMAN_1278_YA (peptide)
chain: FGMARDIYRASAARK
B36: KCC2A_HUMAN_13 (peptide)
chain: CTRFTEEYQLFEELG

target: SHP2 C-SH2 domain E139D; assay: enrichment score (SH2-bound / input frequency) (ratio); bacterial display of known human phosphotyrosine sites (pTyr-Var adds point mutants) read by sequencing; higher = stronger binding; tyrosines were phosphorylated by kinases first; details: peptide library: Human pTyr
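Further: displayed peptides selected on beads carrying the immobilized SH2 domain, with library peptides lacking any tyrosine serving as negative controls.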

Enrichment score, inactive:
B1 2.49, B2 0.689, B3 1.27, B4 0.584, B5 0.913, B6 0.807, B7 0.707, B8 2.12, B9 0.8, B10 0.894, B11 1.02, B12 1.41, B13 1.61, B14 0.775, B15 1.2, B16 1.95, B17 0.733, B18 1.54, B19 0.586, B20 0.673, B21 0.996, B22 0.843, B23 1.07, B24 1.74, B25 1.2, B26 1.38, B27 1.38, B28 2.27, B29 1.03, B30 0.922, B31 1.11, B32 1.96, B33 1.03, B34 1.07, B35 0.997, B36 1.2

target: SHP2 C-SH2 domain wild-type; assay: as above; details: peptide library: Human pTyr

Enrichment score, inactive:
B1 1.98, B2 0.618, B3 1.16, B4 0.636, B5 0.889, B6 0.753, B7 0.913, B8 2.16, B9 0.569, B10 1.03, B11 0.915, B12 2.5, B13 1.35, B14 0.705, B15 1.21, B16 2.11, B17 0.685, B18 1.56, B19 0.431, B20 0.662, B21 0.884, B22 1.92, B23 0.854, B24 2.05, B25 1.03, B26 1.08, B27 0.927, B28 2.47, B29 0.899, B30 0.886, B31 0.881, B32 1.78, B33 0.815, B34 0.888, B35 0.752, B36 1.48

target: SHP2 N-SH2 domain L43F; assay: as above; details: peptide library: Human pTyr

Enrichment score, inactive:
B1 2.12, B2 0.753, B3 1.2, B4 0.681, B5 0.985, B6 0.949, B7 0.734, B8 1.88, B9 0.774, B10 0.65, B11 0.695, B12 1.33, B13 1.29, B14 0.755, B15 1.22, B16 1.92, B17 0.653, B18 1.63, B19 0.695, B20 0.779, B21 1.32, B22 1, B23 0.687, B24 1.53, B25 1.04, B26 0.861, B27 1.09, B28 2.41, B29 0.658, B30 0.762, B31 0.845, B32 1.78, B33 0.886, B34 0.917, B35 0.754, B36 1.21

target: SHP2 N-SH2 domain T42A; assay: as above; details: peptide library: Human pTyr

Enrichment score, inactive:
B1 1.74, B2 0.682, B3 1.1, B4 0.735, B5 0.951, B6 0.808, B7 0.893, B8 2.02, B9 0.601, B10 0.827, B11 0.846, B12 1.51, B13 1.33, B14 0.747, B15 1.22, B16 1.69, B17 0.711, B18 1.48, B19 0.411, B20 0.722, B21 1.62, B22 0.784, B23 0.95, B24 1.62, B25 1.09, B26 1.26, B27 1.21, B28 2.6, B29 0.843, B30 0.772, B31 0.949, B32 1.8, B33 1.17, B34 0.796, B35 0.854, B36 1.27

target: SHP2 N-SH2 domain T52S; assay: as above; details: peptide library: Human pTyr

Enrichment score, inactive:
B1 1.83, B2 0.701, B3 1.5, B4 0.805, B5 0.752, B6 0.676, B7 0.763, B8 2.29, B9 1.01, B10 0.721, B11 1.38, B12 1.89, B13 1.64, B14 0.704, B15 1.11, B16 2.39, B17 0.7, B18 1.77, B19 0.598, B20 0.847, B21 1.06, B22 0.344, B23 1.04, B24 1.48, B25 1.09, B26 1.25, B27 1.24, B28 2.28, B29 0.808, B30 0.693, B31 1.05, B32 1.75, B33 1.1, B34 1.11, B35 0.975, B36 1.38

target: SHP2 N-SH2 domain wild-type; assay: as above; details: peptide library: Human pTyr

Enrichment score, inactive:
B1 2.14, B2 0.629, B3 1.57, B4 0.666, B5 1.31, B6 0.707, B7 0.864, B8 2.51, B9 0.796, B10 0.748, B11 1.14, B12 1.96, B13 1.62, B14 0.838, B15 1.53, B16 2.73, B17 0.815, B18 2, B19 0.623, B20 0.868, B21 0.933, B22 0.542, B23 1.06, B24 1.89, B25 1.27, B26 1.04, B27 1.01, B28 3.11, B29 0.785, B30 0.773, B31 1.11, B32 2.14, B33 1.18, B34 1.05, B35 0.872, B36 1.64
